# Data reported in PubChem BioAssay AID504832 (National Center for Advancing Translational Sciences (NCATS), 2011).
# Out of some 310,000 compounds screened, about 18,000 (5.8%) were called active. The shares of active, inactive and inconclusive entries below differ from those in the screen. Calls follow the shape of the dose curve; as a rule, active = well fitted inhibition curve with a large enough effect; inconclusive = small, poorly fitted or top-dose-only effect, or another doubt; inactive = no such curve, though single readings can be large or run the other way. Potencies of inconclusive entries are left out as doubtful fits.
# Assay: Primary qHTS for delayed death inhibitors of the malarial parasite plastid, 48 hour incubation
# Conditions: P. falciparum luciferase growth in erythrocytes; series mostly up to 28.7 µM
# In short: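 Cell-based growth assay: transgenic P. falciparum expressing firefly luciferase, cultured in red cells within RPMI 1640 containing 0.5% w/v Albumax, 24 mM bicarbonate and gentamycin. A drop in luciferase activity indicates inhibition.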
# Potency is read from the fitted curve at half-maximal effect; tags tell the direction and shape of the fitted curve.
row,Compound,Potency
1,Cc1ccc(CN2CCN(CC(=O)NCc3ccccc3)CC2)cc1,inactive
2,Cc1oc(-c2ccc(Cl)cc2)cc1-c1nn2c(-c3ccoc3C)nnc2s1,"inconclusive [inhibitor, single point]"
3,Cc1cc(SCC(=O)N2CCCC2)nc2ccccc12,inactive
4,Cc1nnc(-c2cccc(Br)c2)c2cn(-c3ccc(Br)cc3)nc12,"inconclusive [inhibitor, single point]"
5,Cc1ccc(NC(=O)c2ccccc2OCC(=O)Nc2ccccc2F)cc1S(=O)(=O)N(C)C,active: 9.28 µM
6,Cc1cc(C(=O)CSc2nn(-c3ccccc3)c(=S)s2)c(C)n1Cc1ccco1,"inconclusive [inhibitor, single point]"
7,CCOC(=O)c1c(-c2ccc(-c3ccccc3)cc2)csc1NC(=O)CCC(=O)O,"inconclusive [inhibitor, partial curve]"
8,Cc1ccc(C(=O)N2CCN(c3ncccn3)CC2)c(C)c1,inactive
9,CCS(=O)(=O)N1CCN=C1SCc1cccnc1,"inconclusive [inhibitor, full curve, poor fit]"
10,CN(C1=C(NC(=O)c2ccc(Cl)cc2)C(=O)c2ccccc2C1=O)c1ccccc1,active: 1.85 µM
11,COc1ccc(N=C2S/C(=C\c3cccs3)C(=O)N2CC(C)C)cc1,"inconclusive [inhibitor, single point]"
12,CCOC(=O)C1=C(C)C(c2cccc(Oc3ccccc3)c2)NC(=S)N1 (centres undefined),"inconclusive [inhibitor, partial curve]"
13,CCC1(c2ccccc2)NC(=O)N(CC(=O)Nc2ccccc2C(=O)NC2CCCC2)C1=O (centres undefined),"inconclusive [inhibitor, single point]"
14,CCCNC(=O)C(Cc1cccc(C#N)c1)NC(=O)c1cccc([N+](=O)[O-])c1 (centres undefined),"inconclusive [inhibitor, single point]"
15,CCCCCCCCCCCC(CC1OC(=O)C1CCCCCC)OC(=O)C(CC(C)C)NC=O (centres undefined),active: 1.07 µM
16,CN(CC(=O)Nc1cccc(F)c1)C(=O)c1cc([N+](=O)[O-])ccc1N1CCCCC1,"inconclusive [inhibitor, single point]"
17,O=C(COC(=O)c1cccc2c1C(=O)c1ccccc1C2=O)NC1CCCCC1,"inconclusive [inhibitor, single point]"
18,NC1=NC(=O)/C(=C/c2cn(CCC(=O)O)nc2-c2ccc(Cl)cc2)S1,inactive
19,COc1cc(-c2noc(C)c2C#Cc2nccn2C)cc(OC)c1OC,"inconclusive [inhibitor, single point]"
20,CCOC(=O)c1ccc(N2C(=O)C3CCCN3C2=S)cc1 (centres undefined),"inconclusive [inhibitor, single point]"
21,CCOC(=O)c1cnc2c(c(C)nn2C)c1Oc1ccccc1F,"inconclusive [inhibitor, partial curve]"
22,CNc1snc(C)c1C(=O)OCC(=O)c1ccc(Cl)cc1,"inconclusive [inhibitor, single point]"

row,Compound,Potency
1,COc1ccc(S(=O)(=O)N(C)CC(=O)NCCC2=CCCCC2)cc1OC,"inconclusive [inhibitor, full curve]"
2,O=[N+]([O-])c1ccc(Cc2ccccn2)cc1,inactive
3,CCOc1ccccc1-n1c(SCC(=O)NC(C)CC)nnc1-c1ccoc1C (centres undefined),"inconclusive [inhibitor, partial curve]"
4,CCn1cc(C(=O)O)c(=O)c2cc(Br)ccc21,active: 2.62 µM
5,CC(C(=O)O)N(c1ccccc1Cl)S(C)(=O)=O (centres undefined),"inconclusive [inhibitor, partial curve, poor fit]"
6,Cc1ccc(NC(=O)C(c2ccc(Cl)cc2Cl)N2CCCC2)cc1 (centres undefined),"inconclusive [inhibitor, single point]"
7,O=C(Oc1c(CN2CCOCC2)cc(Cl)c2cccnc12)c1cccs1,active: 2.62 µM
8,COc1ccc2nc(C)cc(SCC(=O)NNC(=O)COc3cccc4ccccc34)c2c1,"inconclusive [inhibitor, partial curve, poor fit]"
9,COc1ccc(CCn2c(=N)c(C(=O)NCc3ccco3)cc3c(=O)n4cccc(C)c4nc32)cc1,active: 0.465 µM
10,CCNc1nc(NC(C)(C)C)nc(N2CCCCC2)n1,"inconclusive [inhibitor, full curve, poor fit]"
11,CCOC(=O)N1CCN(C(=O)c2ccc3c(c2)N(Cc2ccccc2)CCS3)CC1,"inconclusive [inhibitor, full curve, poor fit]"
12,O=C(CSc1nnc(CCc2nc3ccccc3[nH]2)n1-c1ccccc1)NCc1ccccc1,"inconclusive [inhibitor, partial curve, poor fit]"
13,COc1cccc(C(=O)NC(=S)Nc2ccccc2N2CCCCC2)c1,active: 7.38 µM
14,O=C(c1cc(COc2c(F)cccc2F)on1)N1C[C@H]2CC[C@H]1C2,inactive
15,COc1ccc(N(CC(=O)NCCSCc2ccco2)S(=O)(=O)c2ccccc2)cc1Cl,active: 11.7 µM
16,CC(C)Oc1ccc(N2CC(C(=O)Nc3ccccc3C(=O)NC3CC3)CC2=O)cc1 (centres undefined),"inconclusive [inhibitor, single point]"
17,Cc1ccc2c(CC(=O)OCC(=O)N(CC(C)C)c3c(N)n(Cc4ccccc4)c(=O)[nH]c3=O)coc2c1,"inconclusive [inhibitor, partial curve]"
18,Cc1ccc(S(=O)(=O)N2CCCOC2CNC(=O)C(=O)NCc2ccccc2C)cc1 (centres undefined),"inconclusive [inhibitor, full curve, poor fit]"
19,COC(=O)c1ccccc1OC(=O)c1cc2ccccc2oc1=O,inactive
20,Cc1ccc(S(=O)(=O)N2CCC(C(=O)NCc3ccncc3)CC2)cc1,inactive
21,Cc1ccc(C(=O)c2cncc(Br)c2)cc1,inactive
22,O=C1C2CCCN2C(c2cccnc2)N1c1ccc(Cl)cc1 (centres undefined),"inconclusive [inhibitor, single point]"
